Assay results from publication PMC4336329 (PLoS ONE, 2015).
The campaign covered roughly 310,000 compounds. About 2,200 (0.71%) showed an effect of 50% or more. Effects have a minus sign here. Some of the results follow.

The molecules below were run against human ether-à-go-go-related gene (hERG) potassium channel (human, UniProt Q12809) (assay: primary screen, population patch clamp on CHO cells stably expressing hERG).
human ether-à-go-go-related gene (hERG) potassium channel, sequence (Q12809 whole entry, looked up): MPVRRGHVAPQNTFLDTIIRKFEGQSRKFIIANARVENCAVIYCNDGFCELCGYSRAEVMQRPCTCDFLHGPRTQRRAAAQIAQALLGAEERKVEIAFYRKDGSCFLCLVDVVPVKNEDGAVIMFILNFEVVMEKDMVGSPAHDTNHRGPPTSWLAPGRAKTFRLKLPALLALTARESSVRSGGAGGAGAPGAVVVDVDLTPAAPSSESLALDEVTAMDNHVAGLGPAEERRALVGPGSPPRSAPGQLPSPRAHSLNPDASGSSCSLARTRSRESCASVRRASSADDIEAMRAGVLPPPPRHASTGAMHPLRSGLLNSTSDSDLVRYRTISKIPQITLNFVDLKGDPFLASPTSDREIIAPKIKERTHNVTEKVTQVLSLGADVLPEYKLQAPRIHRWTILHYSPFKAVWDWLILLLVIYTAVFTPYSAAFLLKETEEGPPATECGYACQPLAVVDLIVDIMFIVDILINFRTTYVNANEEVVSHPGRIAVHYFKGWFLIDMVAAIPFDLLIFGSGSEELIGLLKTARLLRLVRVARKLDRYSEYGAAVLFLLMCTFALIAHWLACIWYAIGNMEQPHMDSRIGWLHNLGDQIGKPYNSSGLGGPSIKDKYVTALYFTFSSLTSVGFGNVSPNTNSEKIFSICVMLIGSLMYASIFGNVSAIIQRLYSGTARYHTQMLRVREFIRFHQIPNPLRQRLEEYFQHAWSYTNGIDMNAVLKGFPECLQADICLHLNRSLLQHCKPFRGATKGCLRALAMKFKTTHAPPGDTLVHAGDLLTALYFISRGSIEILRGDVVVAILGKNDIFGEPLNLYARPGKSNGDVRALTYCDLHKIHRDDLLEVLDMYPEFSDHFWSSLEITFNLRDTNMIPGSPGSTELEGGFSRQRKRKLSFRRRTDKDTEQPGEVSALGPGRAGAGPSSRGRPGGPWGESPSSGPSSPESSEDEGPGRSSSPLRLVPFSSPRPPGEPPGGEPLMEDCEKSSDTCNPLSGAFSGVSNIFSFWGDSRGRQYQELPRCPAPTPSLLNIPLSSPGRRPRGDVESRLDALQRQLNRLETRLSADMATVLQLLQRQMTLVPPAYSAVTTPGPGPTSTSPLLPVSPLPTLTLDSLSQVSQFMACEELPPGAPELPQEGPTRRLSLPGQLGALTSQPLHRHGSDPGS
`Cc1ccc(-n2c(O)c(/C=N/NC(=O)c3ccncc3)c(=O)[nH]c2=O)cc1C` was tested, and the “hERG current change (%, negative = inhibition) at 1uM” value was 13.3%. In the case of `CCOC(=O)C(=CNc1ncccc1C)C(=O)OCC`, the “hERG current change (%, negative = inhibition) at 1uM” value is reported as 13.2%. With `Cc1n[nH]c(C)c1CCC(=O)N/N=C/c1c[nH]c2ccccc12` the “hERG current change (%, negative = inhibition) at 1uM” value was -5.75%. For `CCc1nn(CC(=O)NCCc2ccc(S(N)(=O)=O)cc2)c(=O)c2cc3sccc3n12`, the “hERG current change (%, negative = inhibition) at 1uM” value was 13.5%. With `Cc1ccc(Nc2nc(N)c([N+](=O)[O-])c(NCc3ccccc3)n2)cc1` the “hERG current change (%, negative = inhibition) at 1uM” value was 8.5%. For `CN(C)C(CNC(=O)c1cc(S(=O)(=O)N(C)c2ccccc2)ccc1Cl)c1cccs1` (stereo not drawn), the “hERG current change (%, negative = inhibition) at 1uM” value was 14.1%. `COc1ccccc1NC(=O)c1nn(C)c(C(=O)Nc2ccccc2OC)c1[N+](=O)[O-]` was tested, and the “hERG current change (%, negative = inhibition) at 1uM” value was 15%. With `Cc1ccc(-c2cn(S(=O)(=O)c3cccc([N+](=O)[O-])c3)nc2N)cc1` the “hERG current change (%, negative = inhibition) at 1uM” value was 12.6%. In the case of `O=C(CSc1nnc(C2CC2)n1C1CC1)c1ccccc1F`, the “hERG current change (%, negative = inhibition) at 1uM” value is reported as 7.18%. For `CSc1nnc(N2C(=O)C(O)=C(C(=O)c3ccc(C)o3)C2c2ccc(C)cc2)s1` (stereo not drawn), the “hERG current change (%, negative = inhibition) at 1uM” value was 7.56%. With `CCN(CC(=O)Nc1c(F)cccc1F)C(=O)CCN1C(=O)c2cccc([N+](=O)[O-])c2C1=O` the “hERG current change (%, negative = inhibition) at 1uM” value was 12.8%. `O=C1CCc2cc(S(=O)(=O)NC(Cc3ccccc3)C(=O)NCC3CCCO3)ccc2N1` (stereo not drawn) was tested, and the “hERG current change (%, negative = inhibition) at 1uM” value was 13.3%. For `O=C(NC(=S)N1CCCCC1c1cccnc1)c1ccc(Br)cc1` (stereo not drawn), the “hERG current change (%, negative = inhibition) at 1uM” value was -2.83%. With `COc1ccc(C(=O)OCC(=O)NC(C)CCc2ccccc2)cc1` (stereo not drawn) the “hERG current change (%, negative = inhibition) at 1uM” value was 12.7%. `S=C(NCc1ccco1)NC1CCCc2ccccc21` (stereo not drawn) was tested, and the “hERG current change (%, negative = inhibition) at 1uM” value was 7.27%. In the case of `CCC(=O)Nc1nc(C)nc(C)c1C(C)=O`, the “hERG current change (%, negative = inhibition) at 1uM” value is reported as 7.03%. In the case of `Cc1nnc(SCc2nc(N)nc(Nc3ccccc3)n2)s1`, the “hERG current change (%, negative = inhibition) at 1uM” value is reported as 2.83%. With `O=C(Nc1nc2ccccc2n1Cc1ccc(Cl)cc1)c1ccco1` the “hERG current change (%, negative = inhibition) at 1uM” value was 14.1%. In the case of `Cc1noc(NS(=O)(=O)c2ccc(N)cc2)c1C`, the “hERG current change (%, negative = inhibition) at 1uM” value is reported as 11.1%. For `COC(=O)c1c(C)cc(O)cc1O`, the “hERG current change (%, negative = inhibition) at 1uM” value was 15.3%. `O=C(CCCC(=O)N(c1ccc(F)cc1)C(C(=O)NC1CCCC1)c1ccc(O)cc1)Nc1ccccn1` (stereo not drawn) was tested, and the “hERG current change (%, negative = inhibition) at 1uM” value was 0.37%. With `CC(=O)NC(Cc1ccccc1)C(=O)O` (stereo not drawn) the “hERG current change (%, negative = inhibition) at 1uM” value was 17.5%. For `COc1cc(NC(=O)CN2C(=O)c3ccccc3C2=O)c(C(=O)O)cc1OC`, the “hERG current change (%, negative = inhibition) at 1uM” value was 15.4%. With `CCn1c(Cc2ccccc2)nnc1SCc1cccc(C(=O)O)c1` the “hERG current change (%, negative = inhibition) at 1uM” value was 3.62%. With `OCC[N+]12CCC(CC1)C(C(O)(c1ccccc1)c1ccccc1)C2` (stereo not drawn) the “hERG current change (%, negative = inhibition) at 1uM” value was 15.2%. `Br.CC1(C)OC(c2ccccc2)=C/C(=C/C=Nc2ccccc2)O1` was tested, and the “hERG current change (%, negative = inhibition) at 1uM” value was -10.4%. With `NC(=O)CC(NC(=O)Cc1ccc(Cl)cc1)c1ccc(N2CCC(Cc3ccccc3)CC2)c([N+](=O)[O-])c1` (stereo not drawn) the “hERG current change (%, negative = inhibition) at 1uM” value was 13.7%. In the case of `CC1Cc2ccccc2N1C(=O)C(C)n1cc(C(F)(F)F)cc(Cl)c1=O` (stereo not drawn), the “hERG current change (%, negative = inhibition) at 1uM” value is reported as 2.48%. In the case of `CCOc1cc(C(=S)N2CCOCC2)ccc1OS(=O)(=O)c1ccc(NC(C)=O)cc1`, the “hERG current change (%, negative = inhibition) at 1uM” value is reported as 3.35%. For `CCc1ccc(Nc2nc(C)cc(C)n2)cc1.Cl`, the “hERG current change (%, negative = inhibition) at 1uM” value was 12.6%. For `O=C1CC(N2CCN(S(=O)(=O)c3ccccc3F)CC2)C(=O)N1c1ccccc1Cl` (stereo not drawn), the “hERG current change (%, negative = inhibition) at 1uM” value was 10.8%. With `CCOc1ccc(NC(=O)CCSc2ccc3ccccc3n2)cc1` the “hERG current change (%, negative = inhibition) at 1uM” value was 16.5%. For `Cc1[nH]n(-c2ccccc2)c(=O)c1N=Nc1c(O)cc(S(=O)(=O)N(C)C)c2ccccc12`, the “hERG current change (%, negative = inhibition) at 1uM” value was 16.8%. For `CCOC(=O)c1sc2ccccc2c1OC(=O)c1ccccc1OC`, the “hERG current change (%, negative = inhibition) at 1uM” value was 1.47%. In the case of `O=C(Cc1csc(NC(=O)Nc2ccc(Cl)cc2)n1)NCc1ccccn1`, the “hERG current change (%, negative = inhibition) at 1uM” value is reported as -8.65%. For `CCn1cc(C(=O)O)c(=O)c2cc(F)c(N3CCN(C(=S)NC(=O)c4ccccc4F)CC3)cc21`, the “hERG current change (%, negative = inhibition) at 1uM” value was 6.38%. In the case of `COc1ccc(OC)c(-c2c3cc(O)c(=O)cc-3oc3cc(O)c(O)cc23)c1`, the “hERG current change (%, negative = inhibition) at 1uM” value is reported as 0.795%. With `C=CCOC(=O)C1=C[C@H](c2ccc(C(F)(F)F)cc2)[C@@H](CCCO)[C@H](OCC)O1` the “hERG current change (%, negative = inhibition) at 1uM” value was 14.8%. `O=C(NCCN1CCN(c2ccccc2F)CC1)C1c2ccccc2C(=O)N2CCc3ccccc3C12` (stereo not drawn) was tested, and the “hERG current change (%, negative = inhibition) at 1uM” value was 4.1%. `Cc1ccc(-c2nn(Cc3ccccc3)cc2C=O)cc1` was tested, and the “hERG current change (%, negative = inhibition) at 1uM” value was 2.58%. With `Cc1ccc2ccc3cccc4ccc1c2c34` the “hERG current change (%, negative = inhibition) at 1uM” value was 16.4%. In the case of `COc1ccccc1C(=O)N/C(=C/c1ccc(Br)cc1)C(=O)NCCO`, the “hERG current change (%, negative = inhibition) at 1uM” value is reported as 1.21%. In the case of `CN(C)CCCNc1c2c(nc3cc(-c4cccc(F)c4)nn13)CCC2`, the “hERG current change (%, negative = inhibition) at 1uM” value is reported as -15.6%. For `CCN(CC)C(=O)CSc1nc2ccccc2c(=O)n1-c1cccc(OC)c1`, the “hERG current change (%, negative = inhibition) at 1uM” value was 2.18%. For `Cc1cc(C)nc(NS(=O)(=O)c2ccc(NS(=O)(=O)c3ccc(C#N)cc3)cc2)n1`, the “hERG current change (%, negative = inhibition) at 1uM” value was 8.67%. In the case of `COC(=O)CCSCC(=O)N1N=C(c2ccc(Br)cc2)CC1c1cccc(OC)c1OC` (stereo not drawn), the “hERG current change (%, negative = inhibition) at 1uM” value is reported as 16.6%. In the case of `O=C(CN1CCCN(Cc2ccc(F)cc2)S1(=O)=O)NC1CCCC1`, the “hERG current change (%, negative = inhibition) at 1uM” value is reported as 9.24%. `COC(=O)c1sc2nc(CSc3ccc(Br)cc3)[nH]c(=O)c2c1C` was tested, and the “hERG current change (%, negative = inhibition) at 1uM” value was 13.3%. For `Cc1ccc(CNC(=S)Nc2ccc(C)c([N+](=O)[O-])c2)cc1`, the “hERG current change (%, negative = inhibition) at 1uM” value was 12.2%. `CCCCn1c(-c2ccccc2)nnc1-c1ccccc1` was tested, and the “hERG current change (%, negative = inhibition) at 1uM” value was -5.97%. In the case of `Cc1cccc(C(=O)NCc2nnc(SCC(=O)NC(C)c3ccccc3)n2C)c1` (stereo not drawn), the “hERG current change (%, negative = inhibition) at 1uM” value is reported as 13.3%. In the case of `COc1ccc(Br)cc1CNC(=O)C1CCN(c2nnc(N3CCCC3=O)s2)CC1`, the “hERG current change (%, negative = inhibition) at 1uM” value is reported as 16.7%. In the case of `COCCN(C(=O)Nc1ccccc1)c1ccccc1`, the “hERG current change (%, negative = inhibition) at 1uM” value is reported as 11.3%. `Cn1c(SCc2nnc(-c3ccc(F)cc3)o2)nnc1C1COc2ccccc2O1` (stereo not drawn) was tested, and the “hERG current change (%, negative = inhibition) at 1uM” value was -22.2%.
